Results on 57 sequences are retold here after the supplement of paper PMC11417369.

± gives the standard deviation of the averaged measurements. This is one part of the list.

For the assay, the system named is PfAP2-G AP2 domain (GST-tagged). As to the kind of experiment: gcPBM binding intensity (ln(normalized median fluorescence intensity)); higher = stronger DNA binding. The essentials:
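After 1 h on an Agilent 4 × 180k array of primer-extended double-stranded 36-bp intergenic genomic probes and negative controls, bound GST-tagged P. falciparum DNA-binding domains were detected with Alexa488 anti-GST antibody and scanned at 488 nm. The domains had been expressed in E. coli, and binding took place in 1× PBS with 1% milk, 0.2 mg/ml BSA, 0.5% salmon testes DNA and 0.03% Triton X-100. Binding intensity is the highest Masliner-normalised natural-log median intensity across replicate spots of either probe orientation.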
For “GGAAAACACAAAAACTGTACATTTATTCAACATATA [XGTACX_site5831]”, the “gcPBM binding intensity (ln)” value was determined as 11 ± 0.58.

Take “TAAGAACTATTCAGTAGTACCTATATGGATTACTAA [XGTACX_site4278]”: the “gcPBM binding intensity (ln)” value worked out at 10.8 ± 0.5.

For the sequence “ATTGATATTGTATAATGTACAGGAAAAAAAAAAAAA [XGTACX_site526]”, the “gcPBM binding intensity (ln)” value was 10.8 ± 0.83.

Take “TGAAAGAATGTTAATAGTACACACAATTATTATATA [XGTACX_site7936]”: the “gcPBM binding intensity (ln)” value was determined as 11.2 ± 0.73.

On to “TTCTTTATTTTTTCTACACACATTATGTATTCAAAG [CACACA_site3527]”, for which the “gcPBM binding intensity (ln)” value amounted to 10.2 ± 0.049.

Take “TGAAAGAACCTGATTACACACATAAGTTATAAATAT [CACACA_site6165]”: the “gcPBM binding intensity (ln)” value was determined as 9.975 ± 0.049.

In the case of “AAAATTTAAATAGGAAGTACGTTCACTAAGAAAATA [XGTACX_site6546]”, the “gcPBM binding intensity (ln)” value came to 11 ± 0.57.

Take “AATCTCAGAATATACTGTACTTTAAGAAAAAAAAAA [XGTACX_site110]”: the “gcPBM binding intensity (ln)” value was 11.4 ± 0.71.

In the case of “AATATATATTTGTGTACACATTATATATATATATAT [CACACA_site6103]”, the “gcPBM binding intensity (ln)” value is 11.9 ± 1.1.

Regarding “AAAATGTGCATATTTGCACACTTCAATATATATATA [CACACA_site1791]”, the “gcPBM binding intensity (ln)” value came to 10.1 ± 0.41.

Consider “CATAAATCAGCCATAACACACATACCTATATACATA [CACACA_site6324]”, for which the “gcPBM binding intensity (ln)” value is 10.03 ± 0.092.

“AAATATTTTGCATACACATGCAAATATTTTTTACAT [TGCATGCA_site554]”: the “gcPBM binding intensity (ln)” value was 9.8 ± 0.11.

“AATATAAAAAGGCACACACACAAAAAAAAAAAAAAA [CACACA_site896]”: the “gcPBM binding intensity (ln)” value amounted to 9.99 ± 0.45.

Regarding “AAATAAAGATATATATATATATATATATATAATTTT [CACACA_negctrl_site30]”, the “gcPBM binding intensity (ln)” value was determined as 9.495 ± 0.007.

For “ATAATAACTGATAAATGTACATATAAATTTTATGAT [XGTACX_site195]”, the “gcPBM binding intensity (ln)” value came out at 11.1 ± 0.66.

On to “ATAATTTAAAAACATTGTACATTAATATATATGTAT [XGTACX_site8970]”, for which the “gcPBM binding intensity (ln)” value amounted to 10.8 ± 0.59.

In the case of “AGGATATGCGGACACACACACATATATATATATATA [CACACA_site5247]”, the “gcPBM binding intensity (ln)” value came out at 11.3 ± 1.

In the case of “TTTATATTTCTTCATCGTACACATAAAAAAAAAAAA [XGTACX_site3244]”, the “gcPBM binding intensity (ln)” value amounted to 11.2 ± 0.95.

In the case of “ATACTCACGAAACACACACACAATATATATATATAT [CACACA_site4136]”, the “gcPBM binding intensity (ln)” value was 10.1 ± 0.25.

For TTTTATATTTTAAGAGTGCATTTTATATCTTTTTCT, the “gcPBM binding intensity (ln)” value was found to be 9.97 ± 0.014.

Consider “GAAAATATTAAATGAAGTACAATATTTATGTTACTT [XGTACX_site8737]”, for which the “gcPBM binding intensity (ln)” value is 11.2 ± 0.75.

For the sequence “AAGAATTATATTAATAGTACATATATATTAATTTAT [XGTACX_site5713]”, the “gcPBM binding intensity (ln)” value was 10.8 ± 0.57.

As to “TTATTTATGAAGTATACACACAATATAGATTTATAT [CACACA_site6703]”, the “gcPBM binding intensity (ln)” value was found to be 9.93 ± 0.057.

In the case of “TTTAAAATTATAAGGATTAAAAAAAAAAAAAATAAA [CACACA_negctrl_site114]”, the “gcPBM binding intensity (ln)” value is 9.72 ± 0.13.

On to “AAGACATTTTTTTGTTGTACGTCTTCATTTATTGTA [XGTACX_site2890]”, for which the “gcPBM binding intensity (ln)” value came to 11.5 ± 0.87.

For “TTTTGTTATTATAAATAGTAACATTTGTGAATATAT [TGCATGCA_negctrl_site132]”, the “gcPBM binding intensity (ln)” value turned out to be 9.9 ± 0.26.

In the case of “ATAAATTTTTAAACAGCACACATAAATATAATATAT [CACACA_site8691]”, the “gcPBM binding intensity (ln)” value worked out at 10.06 ± 0.064.

On to “ATAATGAAAACAAGCACACATACATAAAATAAAATA [CACACA_site3257]”, for which the “gcPBM binding intensity (ln)” value is 10.1 ± 0.11.

“ATGGAAGGATAATAAAAACCTTTACCTTTCTGTTTA [GTGCAC_negctrl_site380]”: the “gcPBM binding intensity (ln)” value was determined as 9.71 ± 0.17.

As to “TCTACAATTTTAATTACACACTATAAAAAAGAAAGA [CACACA_site5624]”, the “gcPBM binding intensity (ln)” value amounted to 9.965 ± 0.078.

Consider “TAGCTTATAAGATATGCACACACAACACTTACAAAA [CACACA_site8174]”, for which the “gcPBM binding intensity (ln)” value worked out at 10.2 ± 0.22.

As to “AATATTACAATTTGGTGTACAGGTGCACATGCCTCA [XGTACX_site1730]”, the “gcPBM binding intensity (ln)” value was determined as 11.5 ± 0.93.

As for “ATATTATTTTAAAGTACACACATATATTAAGATATA [CACACA_site5306]”, the “gcPBM binding intensity (ln)” value was 11.4 ± 1.

Regarding “ATAGGTTCCCAAAATGCACACCAATGAAATTATTTA [CACACA_site8081]”, the “gcPBM binding intensity (ln)” value turned out to be 10.6 ± 0.45.

As for “CAAGCTTTTTCCTTTACACACATTAGTTATTTATAT [CACACA_site6781]”, the “gcPBM binding intensity (ln)” value was 10 ± 0.042.

Take “ATGATTTCACAAGACACACACATACAAATTTATATA [CACACA_site3909]”: the “gcPBM binding intensity (ln)” value was found to be 10.2 ± 0.21.

Consider “TATTTTATATTTTATGCACACTTATAAGAAATATGT [CACACA_site5647]”, for which the “gcPBM binding intensity (ln)” value turned out to be 10.3 ± 0.19.

Consider TTAATATATTATCTGGTGCATAAACACGTTATACCT, for which the “gcPBM binding intensity (ln)” value was found to be 10.11 ± 0.085.

Turning to “CAGTATTACATGAGGACACACACAAAAAAAATATAT [CACACA_site8156]”, the “gcPBM binding intensity (ln)” value was 11.3 ± 0.86.

With “ATATATATATATATATGTACGTATTCATAAACAACA [XGTACX_site4282]”, the “gcPBM binding intensity (ln)” value was 11.4 ± 0.89.

On to “TATTAATATGGTAATACACACTAATATACTTTTGTT [CACACA_site6860]”, for which the “gcPBM binding intensity (ln)” value turned out to be 10.04 ± 0.021.

Regarding “TAAGTATATTTTATATGTACTTATATATTTAATTTT [XGTACX_site4615]”, the “gcPBM binding intensity (ln)” value was determined as 11.3 ± 0.79.

Turning to “CTGTAAAAAATATAAACACACATAGAGATATATAAA [CACACA_site6292]”, the “gcPBM binding intensity (ln)” value turned out to be 9.885 ± 0.049.

As for “TTTAATGTTACTCCTTGTACACAAAATAGTGTTATA [XGTACX_site8416]”, the “gcPBM binding intensity (ln)” value was determined as 11.3 ± 0.9.

As to “TATTATATATATATATGTACATATATATGCTAAAAA [XGTACX_site5297]”, the “gcPBM binding intensity (ln)” value is 11.1 ± 0.6.

In the case of “GATGTTGCAAAATTCTGTACATATAAATGTATACAT [XGTACX_site5009]”, the “gcPBM binding intensity (ln)” value stood at 11 ± 0.42.

As to “ATTCTATTATAATACACACCCAAATATTAAAAAGAT [CACACA_site2960]”, the “gcPBM binding intensity (ln)” value was found to be 10.25 ± 0.085.

As for “CCACATGATATGATTACACACATATATATATTTACA [CACACA_site164]”, the “gcPBM binding intensity (ln)” value is 9.98 ± 0.057.

Consider “ATACATATGTATATTTGTACATATTAGACAATCTTA [XGTACX_site6706]”, for which the “gcPBM binding intensity (ln)” value came out at 10.6 ± 0.39.

Turning to “ATTAGTAAATTTATATGTACACATTGTTATTTTATA [XGTACX_site1177]”, the “gcPBM binding intensity (ln)” value is 11.5 ± 0.99.

As for “ACATTTACAAGGAAAGTGCATATAAGAAAAATAAAA [GTGCAC_site9587]”, the “gcPBM binding intensity (ln)” value stood at 10.2 ± 0.17.

As to “TAATGAATTTAAATTTTAAAATTAATAAAAAAAATA [TGCATGCA_negctrl_site15]”, the “gcPBM binding intensity (ln)” value is 9.96 ± 0.19.

On to “CAAAATGTTTCTCATTGTACACAAAATAAATGTCCT [XGTACX_site6798]”, for which the “gcPBM binding intensity (ln)” value is 11.5 ± 1.1.

As for “TTTTATATTTTATGCACACTTATAAGAAATATGTAC [CACACA_site3040]”, the “gcPBM binding intensity (ln)” value was determined as 11 ± 0.54.

“TTATTCATTTTTATTTGTACATAATTATATGAAATT [XGTACX_site6389]”: the “gcPBM binding intensity (ln)” value was 10.9 ± 0.49.

For “ATTTTTTTTTATGATACACACTTGGATAATTAAAAC [CACACA_site4473]”, the “gcPBM binding intensity (ln)” value came out at 10.3 ± 0.36.

For the sequence “TATTTATTAAAACACACACACACACCCACAAAATAA [CACACA_site241]”, the “gcPBM binding intensity (ln)” value came to 10.5 ± 0.51.
